The source of these data is the supplement of paper PMC3334620.

Over roughly 33,000 sequences, “E-score (-0.5 to 0.5)” has its median near -0.012; the highest 2% begin near 0.29. This is one part of the list.

The target in this experiment is T1, Ybr033w (UniProt P38073).
T1 sequence: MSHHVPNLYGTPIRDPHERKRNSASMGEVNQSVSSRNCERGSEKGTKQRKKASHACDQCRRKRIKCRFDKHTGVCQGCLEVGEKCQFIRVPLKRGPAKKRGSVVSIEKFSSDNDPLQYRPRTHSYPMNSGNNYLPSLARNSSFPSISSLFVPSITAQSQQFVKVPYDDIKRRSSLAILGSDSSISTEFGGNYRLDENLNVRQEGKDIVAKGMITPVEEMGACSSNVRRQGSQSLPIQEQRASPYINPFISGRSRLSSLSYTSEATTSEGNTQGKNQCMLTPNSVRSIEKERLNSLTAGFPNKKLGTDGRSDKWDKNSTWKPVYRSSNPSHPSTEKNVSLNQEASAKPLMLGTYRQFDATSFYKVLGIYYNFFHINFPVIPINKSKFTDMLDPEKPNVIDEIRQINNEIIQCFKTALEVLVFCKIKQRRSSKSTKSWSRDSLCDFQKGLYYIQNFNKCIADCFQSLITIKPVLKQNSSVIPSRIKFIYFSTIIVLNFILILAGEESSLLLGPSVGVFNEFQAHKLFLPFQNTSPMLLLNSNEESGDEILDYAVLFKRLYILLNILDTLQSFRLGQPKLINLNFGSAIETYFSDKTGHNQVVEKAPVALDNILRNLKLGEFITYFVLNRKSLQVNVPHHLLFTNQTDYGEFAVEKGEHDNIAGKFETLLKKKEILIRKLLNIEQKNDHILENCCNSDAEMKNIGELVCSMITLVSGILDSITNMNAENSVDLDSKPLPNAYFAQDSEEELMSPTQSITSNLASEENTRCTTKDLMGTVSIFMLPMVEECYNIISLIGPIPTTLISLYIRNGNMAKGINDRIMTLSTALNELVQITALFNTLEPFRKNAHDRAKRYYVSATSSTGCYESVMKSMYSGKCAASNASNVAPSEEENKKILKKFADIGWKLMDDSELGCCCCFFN
The experiment can be described thus: PBM E-score (8-mer binding enrichment) (E-score (-0.5 to 0.5)); higher = stronger / more preferred TF binding; most listed sequences are background and not binding sites. Particulars: protein concentration: 200 nM; construct: GST-full length. Put shortly: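 The E-score, a modified Wilcoxon-Mann-Whitney statistic, was computed by the Universal PBM Analysis Suite for every ungapped eight-base word pooled with its reverse complement. Scans behind it were normalised with masliner after bound GST-tagged yeast transcription factors were detected with fluorescent anti-GST. The proteins, at about 100-200 nM, had been applied to universal all-10-mer Agilent arrays made double-stranded by primer extension.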
As for GTTGTCTA, the “PBM E-score” value was -0.0018.

With CACACAGA, the “PBM E-score” value turned out to be 0.0801.

For the sequence CTTGCACA, the “PBM E-score” value was -0.0229. Regarding AATGAGGG, the “PBM E-score” value is -0.119.

Regarding GACAAAGC, the “PBM E-score” value was -0.0281.

CCCACGTC: the “PBM E-score” value was -0.139. The figure for CGCGGCAG is -0.0822. In the case of ACCTATCT it was 0.105; in that of AGCCCGAC, -0.0804; in that of ACTGTTTC, 0.0333.

With GATCGAGC, the “PBM E-score” value was -0.00942.

Turning to GACCCCTA, the “PBM E-score” value is -0.28.

CAGTTCCG: the “PBM E-score” value was -0.0393. For the sequence ATAAGCGC, the “PBM E-score” value was found to be 0.0585.

On to ATGAGTCC, for which the “PBM E-score” value was -0.0465. As for AAATTTGG, the “PBM E-score” value is 0.0261.

With GCCAGTCC, the “PBM E-score” value is -0.261. Consider AGAGCCAT, for which the “PBM E-score” value was -0.137. Regarding AGACCCCG, the “PBM E-score” value was -0.142. For the sequence CTGCACTC, the “PBM E-score” value was -0.174.

Consider CGTCGAAC, for which the “PBM E-score” value is -0.0544. Consider AGACAAAC, for which the “PBM E-score” value was -0.0158. In the case of CTAGTGGC it was -0.104. For the sequence AACAGGTA, the “PBM E-score” value worked out at 0.126. In the case of AATAGGCC it was 0.0592. Take CTACCGAG: the “PBM E-score” value is -0.167.

Regarding ACATGCAG, the “PBM E-score” value is -0.104. In the case of CTTTAATA it was 0.227; in that of CCTCGACC, -0.256. In the case of CTCAGCGA it was 0.00451; in that of AGCAAGCC, -0.126; in that of AAGCGTGA, -0.108. In the case of CCGGATGA it was 0.289; in that of AGTGGTCA, -0.103. Turning to ATGAGGTC, the “PBM E-score” value was -0.0418. In the case of CAAACGAA it was 0.0948; in that of AACAAACT, 0.341. In the case of CCACCCGG it was -0.149; in that of ACTCAAAG, 0.127; in that of CCCAGTCA, -0.298. For the sequence CCGGATCC, the “PBM E-score” value is -0.129.

For the sequence AAGGGAGC, the “PBM E-score” value was -0.235. In the case of ACCTGAAA, the “PBM E-score” value was -0.00483. With CAGCGGTC, the “PBM E-score” value was -0.271.

As for ACTTCCGG, the “PBM E-score” value was 0.117. The figure for GATAAAGC is 0.159; for AAGCATGT it is 0.159; for GTAGTCGA it is 0.0214.

AGTACATG: the “PBM E-score” value was determined as 0.0488. GGGTGTAC: the “PBM E-score” value is -0.134. As to ACCTGACA, the “PBM E-score” value turned out to be 0.00926. The figure for ACTATGTG is 0.0259. The figure for ATTACTGG is -0.0266; for GCACCTTA it is -0.063. The figure for CAGGATTC is -0.0774; for ACAGTCTC it is -0.156; for CGCGAAGC it is 0.0254.

As for CGATCACG, the “PBM E-score” value came to 0.103. For the sequence CGGCCACG, the “PBM E-score” value was -0.165. The figure for AGCGCAGG is -0.12; for ACTTAGAG it is -0.0868. For the sequence CAGCAGGC, the “PBM E-score” value is -0.0664.

Consider CGGACTAC, for which the “PBM E-score” value came to 0.0421.

With AGCCGGTG, the “PBM E-score” value is -0.201.

On to CTCGCAGA, for which the “PBM E-score” value is -0.19. In the case of ATCCTACC it was -0.00627. In the case of ACGTCCAT it was 0.00324; in that of GAGGGTAC, -0.292. The figure for AGGTGATC is -0.0226; for GGAATTGA it is 0.0753. On to ACTAATGA, for which the “PBM E-score” value was found to be 0.272. In the case of CACTCGTA it was -0.117. For the sequence GGGTTACA, the “PBM E-score” value was -0.0926. On to ACGTATTA, for which the “PBM E-score” value stood at 0.229. The figure for ATTGAAAC is 0.164; for TCCGCTCA it is -0.115.

With CGAATTCA, the “PBM E-score” value is -0.00151. Consider AAATGGCG, for which the “PBM E-score” value was -0.00813. Regarding CTGGATCA, the “PBM E-score” value turned out to be 0.228.

For CCTACGTA, the “PBM E-score” value was 0.0174. In the case of CGGCAATA it was 0.085; in that of TAGAACTA, 0.151; in that of AGCCAGGC, -0.0905.

With ATCGGTTG, the “PBM E-score” value amounted to 0.105. For the sequence ATGAGGCG, the “PBM E-score” value was -0.147.

On to CTGGGGGC, for which the “PBM E-score” value is -0.297.
